# Assay results published in PMC11995724, “Antibiotic target discovery by integrated phenotypic and activity-based profiling of electrophilic fragments” (Cell chemical biology, 2025).
# Out of some 3,200 compounds screened, about 75 (2%) showed an effect of 50% or more. Some of the results follow.
# Test system: T1, S. aureus MSSA476
# T1 construct: MSSA476
# Parameters: species or system S. aureus MSSA476 (TSB) or V. cholerae SAD30 (LB); 384-well bacterial growth screen at 25 uM, OD600 relative to DMSO control
# Conditions: relative growth, OD600, TSB; 25 µM; inhibitor
row,Structure (SMILES),% of control remaining
1,"C=CC(=O)N1CCC(C(=O)Oc2ccc(NC(C)=O)cc2)CC1 [3-M16, 4-acetamidophenyl 1-(prop-2-enoyl)piperidine-4-carboxylate]",96.8219%
2,"COc1ccc([N+](=O)[O-])cc1N1C(=O)C=CC1=O [10-P13, 1-(2-methoxy-5-nitrophenyl)-2,5-dihydro-1H-pyrrole-2,5-dione]",94.375%
3,"C=CC(=O)N1CCN(Cc2cc(=O)n3ccsc3n2)CC1 [3-F22, 7-{[4-(prop-2-enoyl)piperazin-1-yl]methyl}-5H-[1,3]thiazolo[3,2-a]pyrimidin-5-one]",101.698%
4,"C=CC(=O)NCCN(C)S(=O)(=O)c1cccs1 [2-A09, N-[2-(N-methylthiophene-2-sulfonamido)ethyl]prop-2-enamide]",155.962%
5,"CCN(CC)C(=O)c1cccc(NC(=O)CCl)c1 [5-I03, 3-(2-chloroacetamido)-N,N-diethylbenzamide]",102.732%
6,"O=C(CCl)NCCc1cccc(Cl)c1 [5-O05, 2-chloro-N-[2-(3-chlorophenyl)ethyl]acetamide]",98.3607%
7,"CCN(Cc1ccc(C#N)cc1F)C(=O)CCl [5-H08, 2-chloro-N-[(4-cyano-2-fluorophenyl)methyl]-N-ethylacetamide]",105.282%
8,"Cc1ccc(Cl)c(NC(=O)CCl)c1Cl [4-D10, 2-chloro-N-(2,6-dichloro-3-methylphenyl)acetamide]",102.144%
9,"CC(NC(=O)C(C#N)=Cc1ccco1)c1cccnc1 (stereo not shown) [9-K03, 2-cyano-3-(furan-2-yl)-N-[1-(pyridin-3-yl)ethyl]prop-2-enamide]",94.0824%
10,"CC(Cl)C(=O)NC1CCC(C)(C)c2ccccc21 (stereo not shown) [6-H21, 2-chloro-N-(4,4-dimethyl-1,2,3,4-tetrahydronaphthalen-1-yl)propanamide]",85.3659%
11,"N#CC(=Cc1cccc2c1OCO2)C(=O)Nc1cccc2ccccc12 [8-K12, 3-(1,3-dioxaindan-4-yl)-2-cyano-N-(naphthalen-1-yl)prop-2-enamide]",100.581%
12,"C=CC(=O)N1CCCc2c(OCC(N)=O)cccc21 [3-D22, 2-{[1-(prop-2-enoyl)-1,2,3,4-tetrahydroquinolin-5-yl]oxy}acetamide]",126.426%
13,"O=C(CCl)c1ccc2c(c1)-c1ccccc1C2 [10-H17, 2-chloro-1-(9H-fluoren-3-yl)ethan-1-one]",1.875%
14,"CC(Cl)C(=O)N1CCc2ccccc21 (stereo not shown) [5-H04, 2-chloro-1-(2,3-dihydro-1H-indol-1-yl)propan-1-one]",77.9599%
15,"C=CC(=O)N1CCCn2ncc(C3CC3)c21 [3-M15, 1-{3-cyclopropyl-4H,5H,6H,7H-pyrazolo[1,5-a]pyrimidin-4-yl}prop-2-en-1-one]",105.877%
16,"C=CC(=O)NC(C)Cc1cccn1C (stereo not shown) [3-M22, N-[1-(1-methyl-1H-pyrrol-2-yl)propan-2-yl]prop-2-enamide]",89.8563%
17,"O=C(CCl)NCc1ccc(OC(F)(F)F)cc1 [6-G08, 2-chloro-N-{[4-(trifluoromethoxy)phenyl]methyl}acetamide]",87.7561%
18,"N#CC(=Cc1ccc(Cl)cc1)C(=O)Nc1ccc2c(c1)OCCO2 [9-E22, 3-(4-chlorophenyl)-2-cyano-N-(2,3-dihydro-1,4-benzodioxin-6-yl)prop-2-enamide]",81.1985%
19,"C=CC(=O)N(C)CC(=O)NC1CCC(N2CCCCC2=O)CC1 (stereo not shown) [3-A06, N-methyl-N-({[4-(2-oxopiperidin-1-yl)cyclohexyl]carbamoyl}methyl)prop-2-enamide]",109.708%
20,"C=CC(=O)NC(C(N)=O)c1ccccc1F (stereo not shown) [2-H19, N-[carbamoyl(2-fluorophenyl)methyl]prop-2-enamide]",120.453%
21,"COc1ccc(C=C(C#N)C(=O)Nc2ccccc2C)cc1O [8-P15, 2-cyano-3-(3-hydroxy-4-methoxyphenyl)-N-(2-methylphenyl)prop-2-enamide]",104.232%
22,"CCc1ccc(NC(=O)C(C#N)=Cc2ccn(-c3ccccc3)n2)cc1 [8-K22, 2-cyano-N-(4-ethylphenyl)-3-(1-phenyl-1H-pyrazol-3-yl)prop-2-enamide]",72.6971%
23,"CCCCNC(=O)C(C#N)=Cc1cccc2ccccc12 [8-N13, N-butyl-2-cyano-3-(naphthalen-1-yl)prop-2-enamide]",85.9751%

row,Structure (SMILES),% of control remaining
1,"C=CC(=O)N(Cc1ccc2c(c1)CCC2)Cc1c(C)noc1C [1-L09, N-[(2,3-dihydro-1H-inden-5-yl)methyl]-N-[(3,5-dimethyl-1,2-oxazol-4-yl)methyl]prop-2-enamide]",88.2637%
2,"COc1cc(NC(=O)CCl)c(C)cc1[N+](=O)[O-] [4-M09, 2-chloro-N-(5-methoxy-2-methyl-4-nitrophenyl)acetamide]",97.5703%
3,"C=CC(=O)N1CCC(C(=O)NCCC2CCS(=O)(=O)C2)CC1 (stereo not shown) [2-H05, N-[2-(1,1-dioxo-1lambda6-thiolan-3-yl)ethyl]-1-(prop-2-enoyl)piperidine-4-carboxamide]",100.957%
4,"C=CC(=O)N1CCC(C(=O)NC2CCCc3nc(C)ncc32)CC1 (stereo not shown) [3-I17, N-(2-methyl-5,6,7,8-tetrahydroquinazolin-5-yl)-1-(prop-2-enoyl)piperidine-4-carboxamide]",114.584%
5,"CCCCNC(=O)C(C#N)=Cc1ccc(C)s1 [9-J06, N-butyl-2-cyano-3-(5-methylthiophen-2-yl)prop-2-enamide]",65.0187%
6,"COc1ccc2cc(CN(C)C(=O)CCl)ccc2c1 [4-A19, 2-chloro-N-[(6-methoxynaphthalen-2-yl)methyl]-N-methylacetamide]",115.865%
7,"N#CC(=Cc1cnc2ccccn12)C(=O)NCc1ccccc1 [9-P18, N-benzyl-2-cyano-3-{imidazo[1,2-a]pyridin-3-yl}prop-2-enamide]",88.3895%
8,"C=CC(=O)Nc1cccc(-c2ccon2)c1 [3-L04, N-[3-(1,2-oxazol-3-yl)phenyl]prop-2-enamide]",104.484%
9,"N#CC(=Cc1ccc(OC(F)F)cc1)C(=O)N1CCCC1 [8-L22, 3-[4-(difluoromethoxy)phenyl]-2-(pyrrolidine-1-carbonyl)prop-2-enenitrile]",104.896%
10,"CC(Cl)C(=O)c1ccc(C(C)(C)C)cc1 (stereo not shown) [10-D14, 1-(4-tert-butylphenyl)-2-chloropropan-1-one]",98.4375%
11,"COc1cccc2cc(C=C(C#N)C(=O)Nc3ccc(C)cc3)oc12 [9-A17, 2-cyano-3-(7-methoxy-1-benzofuran-2-yl)-N-(4-methylphenyl)prop-2-enamide]",102.472%
12,"C=CC(=O)Nc1cccc(-c2nc(COC)no2)c1C [1-J08, N-{3-[3-(methoxymethyl)-1,2,4-oxadiazol-5-yl]-2-methylphenyl}prop-2-enamide]",101.626%
13,"CC(Cl)C(=O)Nc1ccc(F)cc1 (stereo not shown) [6-K15, 2-chloro-N-(4-fluorophenyl)propanamide]",99.7073%
14,"COc1cccc(NC(=O)C(C#N)=Cc2cccc(O)c2)c1 [8-P03, 2-cyano-3-(3-hydroxyphenyl)-N-(3-methoxyphenyl)prop-2-enamide]",76.3485%
15,"Cc1cc(C)n(CCCNC(=O)C(C)Cl)n1 (stereo not shown) [7-O19, 2-chloro-N-[3-(3,5-dimethyl-1H-pyrazol-1-yl)propyl]propanamide]",98.2732%
16,"Cc1ccc(NC(=O)C(C#N)=Cc2cccc(C(F)(F)F)c2)c(C)c1 [8-H11, 2-cyano-N-(2,4-dimethylphenyl)-3-[3-(trifluoromethyl)phenyl]prop-2-enamide]",111.867%
17,"CC(NC(=O)CCl)c1ccc(-c2ccccc2)cc1 (stereo not shown) [5-A17, N-(1-{[1,1'-biphenyl]-4-yl}ethyl)-2-chloroacetamide]",97.9964%
18,"CC1=C(C#N)C(=O)N(C)C(=O)C1=Cc1ccc(-c2ccccc2Cl)o1 [9-K18, 5-{[5-(2-chlorophenyl)furan-2-yl]methylidene}-1,4-dimethyl-2,6-dioxo-1,2,5,6-tetrahydropyridine-3-carbonitrile]",64.7191%
19,"CCC(=O)Nc1cccc(NC(=O)CCl)c1C [5-K04, N-[3-(2-chloroacetamido)-2-methylphenyl]propanamide]",101.275%
20,"C=CC(=O)Nc1cnn(CCF)c1 [1-E05, N-[1-(2-fluoroethyl)-1H-pyrazol-4-yl]prop-2-enamide]",103.385%
21,"C=CC(=O)N1CCN(c2nccn(C)c2=O)CC1 [3-P20, 1-methyl-3-[4-(prop-2-enoyl)piperazin-1-yl]-1,2-dihydropyrazin-2-one]",100.653%
22,"C=CC(=O)Nc1ccc(C(=O)N2CCC(S(=O)(=O)NC)C2)cc1 (stereo not shown) [3-O08, N-{4-[3-(methylsulfamoyl)pyrrolidine-1-carbonyl]phenyl}prop-2-enamide]",86.7218%
23,"C=CC(=O)N1CCOC2(CCCCCC2)C1 [1-L08, 1-{1-oxa-4-azaspiro[5.6]dodecan-4-yl}prop-2-en-1-one]",128.703%
